Here are results for 153 variants from a collection of fitness landscapes (doi:10.1126/science.1257360).

The chains are these.
B1: PhoQ; a variant is named by its letters at X, in order, P23837 (parent)
chain: MKKLLRLFFPLSLRVRFLLATAAVVLVLSLAYGMVALIGYSVSFDKTTFRLLRGESNLFYTLAKWENNKLHVELPENIDKQSPTMTLIYDENGQLLWAQRDVPWLMKMIQPDWLKSNGFHEIEADVNDTSLLLSGDHSIQQQLQEVREDDDDAEMTHSVAVNVYPATSRMPKLTIVVVDTIPVELKSSYMVWSWFIYVLSANLLLVIPLLWVAAWWSLRPIEALAKEVRELEEHNRELLNPATTRELTSLVRNLNRLLKSERERYDKYRTTLTDLTHSLKTPLXXLQXXLRSLRSEKMSVSDAEPVMLEQISRISQQIGYYLHRASMRGGTLLSRELHPVAPLLDNLTSALNKVYQRKGVNISLDISPEISFVGEQNDFVEVMGNVLDNACKYCLEFVEISARQTDEHLYIVVEDDGPGIPLSKREVIFDRGQRVDTLRPGQGVGLAVAREITEQYEGKIVAGESMLGGARMEVIFGRQHSAPKDE

The list shows a part of the results. Bounds are passed on as bounds.

This assay covers variants of B1. In words: enrichment ratio after two sorts for PhoP signalling (ratio (wild type AVST 3.29)); higher = more functional. As to conditions: with PhoP (E. coli).
Consider VALF, for which the enrichment ratio came to 2.09.

In the case of STEV, the enrichment ratio was at most 0.25.

Take SAAI: the enrichment ratio was 7.86.

Regarding MFWN, the enrichment ratio is at most 0.25.

As for KNFL, the enrichment ratio is at most 0.25.

In the case of YYQD, the enrichment ratio was at most 0.25.

Take LFLA: the enrichment ratio is at most 0.25.

Take LHET: the enrichment ratio is at most 0.25.

VVMV: the enrichment ratio is at most 0.25.

As for ADEA, the enrichment ratio is at most 0.25.

On to HIKW, for which the enrichment ratio is at most 0.25.

For YKMP, the enrichment ratio is at most 0.25.

Consider AKYL, for which the enrichment ratio was at most 0.25.

For TAKS, the enrichment ratio is at most 0.25.

In the case of DEPV, the enrichment ratio was at most 0.25.

For SLCQ, the enrichment ratio turned out to be 9.86.

Take WFNL: the enrichment ratio was at most 0.25.

With QAMR, the enrichment ratio is at most 0.25.

Turning to ADMI, the enrichment ratio was 12.7.

Consider AGCN, for which the enrichment ratio worked out at 0.292.

For NVWW, the enrichment ratio is at most 0.25.

For the variant HKPK, the enrichment ratio was at most 0.25.

Take WHVP: the enrichment ratio is at most 0.25.

QINF: the enrichment ratio is at most 0.25.

INIC: the enrichment ratio was at most 0.25.

In the case of ANVI, the enrichment ratio is 5.15.

As for GRQL, the enrichment ratio is at most 0.25.

For the variant PQGA, the enrichment ratio was at most 0.25.

With DEQL, the enrichment ratio was at most 0.25.

In the case of GFDP, the enrichment ratio is at most 0.25.

As for YMSE, the enrichment ratio was at most 0.25.

AENH: the enrichment ratio is 0.296.

Consider AGTR, for which the enrichment ratio was at most 0.25.

On to TWNN, for which the enrichment ratio was found to be 0.76.

SQTH: the enrichment ratio amounted to 3.03.

On to KDQN, for which the enrichment ratio was at most 0.25.

As to TIHI, the enrichment ratio is 7.71.

Regarding RDRD, the enrichment ratio is at most 0.25.

Consider TYVI, for which the enrichment ratio was at most 0.25.

In the case of DPMS, the enrichment ratio was at most 0.25.

In the case of VYRR, the enrichment ratio is at most 0.25.

On to RWES, for which the enrichment ratio is at most 0.25.

With VGQV, the enrichment ratio is at most 0.25.

In the case of GPYC, the enrichment ratio is at most 0.25.

As for EPMC, the enrichment ratio was at most 0.25.

For MILV, the enrichment ratio worked out at 13.

In the case of SFSP, the enrichment ratio is at most 0.25.

As to CTSF, the enrichment ratio stood at 3.85.

Turning to VMFF, the enrichment ratio was at most 0.25.

Take QSLL: the enrichment ratio stood at 0.391.

On to PGHS, for which the enrichment ratio is at most 0.25.

On to VFFP, for which the enrichment ratio was at most 0.25.

Take KTFF: the enrichment ratio is at most 0.25.

Regarding FCGG, the enrichment ratio was at most 0.25.

On to EHFS, for which the enrichment ratio is at most 0.25.

In the case of IGEL, the enrichment ratio is at most 0.25.

RETF: the enrichment ratio was at most 0.25.

With NWWH, the enrichment ratio was at most 0.25.

In the case of VHQV, the enrichment ratio is at most 0.25.

With YCDW, the enrichment ratio was at most 0.25.

EDAV: the enrichment ratio is at most 0.25.

Take GKCG: the enrichment ratio is at most 0.25.

Consider GNKQ, for which the enrichment ratio is at most 0.25.

As to TSCV, the enrichment ratio came to 17.3.

As to IYGM, the enrichment ratio was at most 0.25.

FGYT: the enrichment ratio is at most 0.25.

WNGD: the enrichment ratio is at most 0.25.

With DDMY, the enrichment ratio was at most 0.25.

NDTD: the enrichment ratio is at most 0.25.

In the case of GSGA, the enrichment ratio was at most 0.25.

In the case of QKFT, the enrichment ratio was at most 0.25.

As to PNNS, the enrichment ratio is at most 0.25.

VDTM: the enrichment ratio was at most 0.25.

With GKLF, the enrichment ratio is at most 0.25.

Turning to ELEC, the enrichment ratio was at most 0.25.

For the variant TLSD, the enrichment ratio was 0.963.

As to GMIG, the enrichment ratio is at most 0.25.

As to SHAP, the enrichment ratio is at most 0.25.

Turning to ERRQ, the enrichment ratio was at most 0.25.

With NPAS, the enrichment ratio is at most 0.25.

Regarding HGCS, the enrichment ratio was at most 0.25.

In the case of ISKC, the enrichment ratio was at most 0.25.

On to ETLE, for which the enrichment ratio was at most 0.25.

With HCFA, the enrichment ratio is at most 0.25.

In the case of TPNL, the enrichment ratio is at most 0.25.

Turning to QYSN, the enrichment ratio is at most 0.25.

As to QGLR, the enrichment ratio was at most 0.25.

For the variant GGYD, the enrichment ratio is at most 0.25.

As to EEQN, the enrichment ratio was at most 0.25.

With IYDG, the enrichment ratio was at most 0.25.

Regarding TIIM, the enrichment ratio is at most 0.25.

As for ETFF, the enrichment ratio was at most 0.25.

For the variant YAFG, the enrichment ratio was at most 0.25.

For the variant LNIW, the enrichment ratio was at most 0.25.

QTDT: the enrichment ratio came out at 8.6.

With EYHF, the enrichment ratio was at most 0.25.

Consider YWSS, for which the enrichment ratio was at most 0.25.

Regarding NQCH, the enrichment ratio is at most 0.25.

On to YQPM, for which the enrichment ratio was at most 0.25.

Turning to KTNT, the enrichment ratio was at most 0.25.

With WSVG, the enrichment ratio is at most 0.25.

For KSAC, the enrichment ratio is at most 0.25.

As for VEYQ, the enrichment ratio is at most 0.25.

As to STHW, the enrichment ratio is at most 0.25.

As to VLLF, the enrichment ratio is at most 0.25.

For the variant ISHT, the enrichment ratio is at most 0.25.

As for HSHM, the enrichment ratio was at most 0.25.

Regarding LDIR, the enrichment ratio was at most 0.25.

Regarding QAQK, the enrichment ratio is at most 0.25.

Take LTRE: the enrichment ratio was at most 0.25.

In the case of IDLV, the enrichment ratio was at most 0.25.

As for PPSA, the enrichment ratio was at most 0.25.

With QNIE, the enrichment ratio was at most 0.25.

Regarding AEYY, the enrichment ratio is at most 0.25.

On to GCRG, for which the enrichment ratio is at most 0.25.

In the case of PPGY, the enrichment ratio was at most 0.25.

For the variant YFDF, the enrichment ratio was at most 0.25.

As for ESCC, the enrichment ratio is at most 0.25.

Take TLNI: the enrichment ratio was determined as 1.09.

On to SLMT, for which the enrichment ratio was at most 0.25.

Turning to PDFY, the enrichment ratio was at most 0.25.

Turning to ARLQ, the enrichment ratio stood at 0.516.

PVKG: the enrichment ratio was at most 0.25.

Regarding DEPC, the enrichment ratio was at most 0.25.

Consider DHMT, for which the enrichment ratio is at most 0.25.

Turning to LSDF, the enrichment ratio was at most 0.25.

IPRE: the enrichment ratio was at most 0.25.

YFCN: the enrichment ratio is at most 0.25.

For GNYR, the enrichment ratio is at most 0.25.

With VKSR, the enrichment ratio was at most 0.25.

Turning to KYQK, the enrichment ratio is at most 0.25.

Regarding VRMC, the enrichment ratio was at most 0.25.

With HWDL, the enrichment ratio was at most 0.25.

RGDW: the enrichment ratio is at most 0.25.

PWYH: the enrichment ratio is at most 0.25.

As to INVE, the enrichment ratio is at most 0.25.

For SKWQ, the enrichment ratio was at most 0.25.

For ITED, the enrichment ratio is at most 0.25.

For IPKH, the enrichment ratio was at most 0.25.

For KFWN, the enrichment ratio was at most 0.25.

As for VGDK, the enrichment ratio is at most 0.25.

On to DIFH, for which the enrichment ratio is at most 0.25.

On to LAGS, for which the enrichment ratio is at most 0.25.

Consider CYLA, for which the enrichment ratio is at most 0.25.

On to HCTD, for which the enrichment ratio is at most 0.25.

Take VLKN: the enrichment ratio is at most 0.25.

WFWL: the enrichment ratio was at most 0.25.

On to ERMT, for which the enrichment ratio was at most 0.25.

EFTK: the enrichment ratio is at most 0.25.

LECY: the enrichment ratio was at most 0.25.

As to IKMP, the enrichment ratio was at most 0.25.

Turning to MSHT, the enrichment ratio is at most 0.25.

Consider IIMY, for which the enrichment ratio was at most 0.25.
